# This list was built around the results that the source calls inconclusive (neither active nor inactive); the mix of calls is not that of the screen. No potency is given beside an inconclusive call; the fits are too rough. The source made the active and inactive calls. Calls come from the whole dose curve; as a rule, active = well fitted curve in either direction with a large enough effect (not every such curve was filed as active); inconclusive = small, poorly fitted or top-dose-only effect, or another doubt; inactive = flat fitted curve, though single readings scatter.
# Target: Mitogen-activated protein kinase 10 (Mus musculus) (UniProt Q61831)
# Assay: JNK3 AlphaScreen Assay (AID 530);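 note: kinase came from lysate of stimulated human HepG2 cells; signal reports phosphorylation of biotinylated GST-cJun 1-79 at Ser73 with 10 µM ATP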
# Conditions: JNK3 lysate, c-Jun phosphorylation; activity change, negative = inhibition: at 57.1 µM (top of the series)
# How it was run: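 Pre-activated (IL-1β/TNFα) JNK3 in HepG2 lysates phosphorylates biotin-GST-cJun(1-79), 10 uM ATP; anti-phospho-cJun(Ser73) AlphaScreen read at room temperature, pH 7.6 Tris buffer. Compounds pre-incubated 15 min as titrations.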
# % is set by controls: 0 for no effect and ±100 for the full control effect; potency is the fitted concentration of half-maximal effect; tags give direction and shape of the fitted curve.
SMILES,Potency,"activity change, negative = inhibition"
CC1(C(=O)NCC2CC2)C=CC2(CCCCC2)N1C(=O)c1ccccc1 (centres undefined),inactive,–
CO[C@@H]1/C=C\O[C@]2(C)Oc3c(C)c(O)c4c(O)c(c(/C=N\N5CCN(C)CC5)c(O)c4c3C2=O)NC(=O)/C(C)=C\C=C/[C@H](C)[C@H](O)[C@H](C)[C@H](O)[C@H](C)[C@H](OC(C)=O)[C@@H]1C,"inconclusive [inhibitor, partial curve, poor fit]",–
CN(C)c1ccc(CNC(=O)[C@@]2(C)C=C[C@@H](Cc3ccccc3)N2C)cc1,"inconclusive [inhibitor, partial curve]",–
CC(C)=CCNc1ncnc2c1c(C#N)cn2[C@H]1O[C@@H](CO)[C@@H](O)[C@@H]1O,–,inactive: 0.926% [at 11.4 µM]
CS(=O)(=O)Nc1cccc(-c2nccc(NCc3ccccc3)n2)c1,inactive,–
Cc1cccc(CNc2ncnc3[nH]ncc23)c1,–,inactive: -2.44% [at 11.4 µM]
COC(=O)[C@H](Cc1ccccc1)NC(=O)[C@]1(C)C[C@H]1[C@H](NC(=O)OCc1ccccc1)c1ccccc1,inactive,–
CC(C)NC(=O)[C@H]1C[C@@H]1[C@H](NC(=O)OCc1ccccc1)c1ccccc1,inactive,–
CC(C)[C@@H](CC(=O)N[C@@H]1CCCC[C@H]1C(=O)N[C@H](CC(=O)N[C@@H](CCC(=O)O)CC(=O)O)Cc1c[nH]c2ccccc12)NC(=O)C[C@H](CO)NC(=O)[C@@H]1CNCC[C@H]1N,"inconclusive [inhibitor, single point]",–
COC(=O)[C@@]1(Cc2ccc(F)cc2)[C@H]2c3cc(C(=O)N(C)C)n(CCF)c3C[C@H]2CN1C(=O)c1ccccc1,inactive,–
COC(=O)[C@H]1[C@@H]2C[C@H]3c4[nH]c5ccccc5c4CCN3C[C@@H]2CC[C@@H]1O,"inconclusive [activator, single point]",–
COc1cc2ccc(=O)oc2c(O)c1O,"inconclusive [inhibitor, single point]",–
O=C(O)Cc1cc2ccccc2nc1C(=O)O,inactive,–
COc1cc2c3cc1Oc1c(OC)c(OC)cc4c1[C@@H](Cc1ccc(O)c(c1)Oc1ccc(cc1)C[C@@H]3N(C)CC2)CN(C)C4,–,inactive: -2.27% [at 11.4 µM]
O=c1cc(-c2ccccc2O)oc2c(O)c(O)ccc12,–,inconclusive: -124%
COCCNC(=O)[C@H]1C[C@@H]1[C@H](NP(=O)(c1ccccc1)c1ccccc1)c1ccccc1,inactive,–
C[C@@H]1C(=O)O[C@@H]2C[C@@]34[C@H]5C[C@@H](C(C)(C)C)[C@@]36[C@@H](OC(=O)[C@@H]6O)O[C@]4(C(=O)O5)[C@@]12O,inactive,–
CC[C@H]1C2=C3C(CC[C@H]4C(OCc5ccc(F)cc5C(F)(F)F)OC[C@](C)([C@@H]34)N(C(=O)OC(C)(C)C)C2)C(COC)C1COC (some centres undefined),inactive,–
COc1cccc(Cn2c(=O)c(-c3cccc(Cl)c3)nc3cncnc32)c1,"inconclusive [inhibitor, partial curve]",–
c1ccc(CN2CCC3(CC2)SSC2(CCN(Cc4ccccc4)CC2)SS3)cc1,–,inactive: -5.83% [at 11.4 µM]
CC(C)C[C@@H](CC(=O)N[C@@H](CCC(=O)O)CC(=O)O)NC(=O)[C@@H]1CNCC[C@H]1NC(=O)C[C@@H](NC(=O)C[C@H](CO)NC(=O)[C@@H]1CNCC[C@H]1N)C(C)C,"inconclusive [inhibitor, single point]",–
CCCCNc1nc(C)nc2c1nc(-c1ccccc1)n2C1CCN(Cc2ccccc2)C1 (centres undefined),inactive,–
N#Cc1cccc(-c2nc3cnc(Nc4ccccc4)nc3n(C[C@H]3CCCO3)c2=O)c1,inactive,–
COc1ccc(C(=O)N2CCC[C@@]3(CCN(c4ccccn4)C3)C2)cc1,inactive,–
Cc1cc(SCC(=O)c2ccccc2)nc2ccccc12,–,inactive: 7.35% [at 11.4 µM]
O=C(O)[C@H]1CC=CC[C@@H]1C(=O)Nc1cccc(O)c1,–,inactive: 2.17% [at 11.4 µM]
O=C(O)CCNCC(=O)O,–,inactive: -0.395% [at 11.4 µM]
Cc1c(Cl)c(S(N)(=O)=O)cc(S(N)(=O)=O)c1NC(=O)c1ccc(Cl)cc1,–,inactive: 5.09% [at 11.4 µM]
CCCC[C@@H]1C[C@H]1C(NC(=O)c1cccs1)c1ccc(Cl)cc1 (some centres undefined),"inconclusive [activator, partial curve]",–

# — PubChem BioAssay (NCATS)
